Results: the supplement of paper PMC8728848
The other results are listed elsewhere or left out.

How the values were obtained:
Assay in all cases: glycan array binding signal (z-score within array); higher = stronger binding
Settings in all cases: glycan notation: IUPAC condensed, linker removed
[1] = target: Gal(b1-3)[Fuc(a1-4)]GlcNAc(b1-6)GalNAc
Procedure, shortened: (§1)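 Glycan array data were curated from 3228 arrays in the Consortium for Functional Glycomics database and kept only where the protein sequence was available. Glycan names were converted to IUPAC-condensed notation, and columns mapping to the same glycan were averaged. The binding signal is a within-array Z-score, averaged across arrays of the same protein sequence at different concentrations or buffers and across linkers. Negative Z-scores can be read as non-binding.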

[2] = target: Gal(b1-3)[GlcNAc(b1-6)]GalNAc
Procedure, shortened: as §1

[3] = target: Gal(b1-3)[Neu5Ac(a2-6)]GalNAc
Procedure, shortened: as §1

[4] = target: Gal(b1-3)[Neu5Ac(a2-6)]GlcNAc(b1-4)Gal(b1-4)Glc
Procedure, shortened: as §1

[5] = target: Gal(b1-3)[Neu5Ac(b2-6)]GalNAc
Procedure, shortened: as §1

Gal(b1-4)Gal = target: Gal(b1-4)Gal
Procedure, shortened: as §1

[6] = target: Gal(b1-4)GalNAc(a1-3)[Fuc(a1-2)]Gal(b1-4)GlcNAc
Procedure, shortened: as §1

[7] = target: Gal(b1-4)GalNAc(b1-3)[Fuc(a1-2)]Gal(b1-4)GlcNAc
Procedure, shortened: as §1

Gal(b1-4)Glc = target: Gal(b1-4)Glc
Procedure, shortened: as §1

Gal(b1-4)Glc6S = target: Gal(b1-4)Glc6S
Procedure, shortened: as §1

Gal(b1-4)GlcNAc = target: Gal(b1-4)GlcNAc
Procedure, shortened: as §1

[8] = target: Gal(b1-4)GlcNAc(a1-6)Gal(b1-4)GlcNAc
Procedure, shortened: as §1

Gal(b1-4)GlcNAc(b1-2)Man = target: Gal(b1-4)GlcNAc(b1-2)Man
Procedure, shortened: as §1

[9] = target: Gal(b1-4)GlcNAc(b1-2)Man(a1-3)Man(b1-4)GlcNAc(b1-4)GlcNAc
Procedure, shortened: as §1

[10] = target: Gal(b1-4)GlcNAc(b1-2)Man(a1-3)[Gal(b1-4)GlcNAc(b1-2)Man(a1-6)]Man(b1-4)GlcNAc(b1-4)GlcNAc
Procedure, shortened: as §1

[11] = target: Gal(b1-4)GlcNAc(b1-2)Man(a1-3)[Gal(b1-4)GlcNAc(b1-2)Man(a1-6)]Man(b1-4)GlcNAc(b1-4)[Fuc(a1-6)]GlcNAc
Procedure, shortened: as §1

[12] = target: Gal(b1-4)GlcNAc(b1-2)Man(a1-3)[Gal(b1-4)GlcNAc(b1-2)Man(a1-6)][Gal(b1-4)GlcNAc(b1-4)]Man(b1-4)GlcNAc(b1-4)[Fuc(a1-6)]GlcNAc
Procedure, shortened: as §1

[13] = target: Gal(b1-4)GlcNAc(b1-2)Man(a1-3)[Gal(b1-4)GlcNAc(b1-2)Man(a1-6)][GlcNAc(b1-4)]Man(b1-4)GlcNAc(b1-4)[Fuc(a1-6)]GlcNAc
Procedure, shortened: as §1

[14] = target: Gal(b1-4)GlcNAc(b1-2)Man(a1-3)[GlcNAc(b1-2)Man(a1-6)]Man(b1-4)GlcNAc(b1-4)GlcNAc
Procedure, shortened: as §1

[15] = target: Gal(b1-4)GlcNAc(b1-2)Man(a1-3)[GlcNAc(b1-4)][Gal(b1-4)GlcNAc(b1-2)Man(a1-6)]Man(b1-4)GlcNAc(b1-4)GlcNAc
Procedure, shortened: as §1

[16] = target: Gal(b1-4)GlcNAc(b1-2)Man(a1-3)[Man(a1-6)]Man(b1-4)GlcNAc(b1-4)GlcNAc
Procedure, shortened: as §1

[17] = target: Gal(b1-4)GlcNAc(b1-2)Man(a1-6)Man(b1-4)GlcNAc(b1-4)GlcNAc
Procedure, shortened: as §1

[18] = target: Gal(b1-4)GlcNAc(b1-2)Man(a1-6)[GlcNAc(b1-2)Man(a1-3)]Man(b1-4)GlcNAc(b1-4)GlcNAc
Procedure, shortened: as §1

[19] = target: Gal(b1-4)GlcNAc(b1-2)Man(a1-6)[Man(a1-3)]Man(b1-4)GlcNAc(b1-4)GlcNAc
Procedure, shortened: as §1

[20] = target: Gal(b1-4)GlcNAc(b1-2)[Gal(b1-4)GlcNAc(b1-4)]Man(a1-3)[Gal(b1-4)GlcNAc(b1-2)Man(a1-6)]Man(b1-4)GlcNAc(b1-4)GlcNAc
Procedure, shortened: as §1

[21] = target: Gal(b1-4)GlcNAc(b1-2)[Gal(b1-4)GlcNAc(b1-4)]Man(a1-3)[Gal(b1-4)GlcNAc(b1-2)[Gal(b1-4)GlcNAc(b1-6)]Man(a1-6)]Man(b1-4)GlcNAc(b1-4)GlcNAc
Procedure, shortened: as §1

[22] = target: Gal(b1-4)GlcNAc(b1-2)[Gal(b1-4)GlcNAc(b1-4)]Man(a1-3)[GlcNAc(b1-4)][Gal(b1-4)GlcNAc(b1-2)Man(a1-6)]Man(b1-4)GlcNAc(b1-4)GlcNAc
Procedure, shortened: as §1

[23] = target: Gal(b1-4)GlcNAc(b1-2)[Gal(b1-4)GlcNAc(b1-4)]Man(a1-3)[GlcNAc(b1-4)][Gal(b1-4)GlcNAc(b1-2)[Gal(b1-4)GlcNAc(b1-6)]Man(a1-6)]Man(b1-4)GlcNAc(b1-4)GlcNAc
Procedure, shortened: as §1

[24] = target: Gal(b1-4)GlcNAc(b1-2)[Gal(b1-4)GlcNAc(b1-6)]Man(a1-6)[Gal(b1-4)GlcNAc(b1-2)Man(a1-3)]Man(b1-4)GlcNAc(b1-4)GlcNAc
Procedure, shortened: as §1

[25] = target: Gal(b1-4)GlcNAc(b1-2)[Gal(b1-4)GlcNAc(b1-6)]Man(a1-6)[Gal(b1-4)GlcNAc(b1-2)Man(a1-3)]Man(b1-4)GlcNAc(b1-4)[Fuc(a1-6)]GlcNAc
Procedure, shortened: as §1

[26] = target: Gal(b1-4)GlcNAc(b1-2)[Gal(b1-4)GlcNAc(b1-6)]Man(a1-6)[GlcNAc(b1-4)][Gal(b1-4)GlcNAc(b1-2)Man(a1-3)]Man(b1-4)GlcNAc(b1-4)GlcNAc
Procedure, shortened: as §1

[27] = target: Gal(b1-4)GlcNAc(b1-2)[Gal(b1-4)GlcNAc(b1-6)]Man(a1-6)[GlcNAc(b1-4)][Gal(b1-4)GlcNAc(b1-2)[Gal(b1-4)GlcNAc(b1-4)]Man(a1-3)]Man(b1-4)GlcNAc(b1-4)[Fuc(a1-6)]GlcNAc
Procedure, shortened: as §1

[28] = target: Gal(b1-4)GlcNAc(b1-3)Gal(b1-3)GalNAc
Procedure, shortened: as §1

[29] = target: Gal(b1-4)GlcNAc(b1-3)Gal(b1-3)GlcNAc
Procedure, shortened: as §1

[30] = target: Gal(b1-4)GlcNAc(b1-3)Gal(b1-4)Glc
Procedure, shortened: as §1

[31] = target: Gal(b1-4)GlcNAc(b1-3)Gal(b1-4)GlcNAc
Procedure, shortened: as §1

[32] = target: Gal(b1-4)GlcNAc(b1-3)Gal(b1-4)GlcNAc(b1-2)Man(a1-3)[Gal(b1-4)GlcNAc(b1-3)Gal(b1-4)GlcNAc(b1-2)Man(a1-6)]Man(b1-4)GlcNAc(b1-4)GlcNAc
Procedure, shortened: as §1

[33] = target: Gal(b1-4)GlcNAc(b1-3)Gal(b1-4)GlcNAc(b1-2)Man(a1-3)[Gal(b1-4)GlcNAc(b1-3)Gal(b1-4)GlcNAc(b1-2)Man(a1-6)]Man(b1-4)GlcNAc(b1-4)[Fuc(a1-6)]GlcNAc
Procedure, shortened: as §1

B1: B160 (Bifidobacterium sp) (protein)
chain: MVSHNKRIVAALAAVAAMGIGLAGCGGSDTAGDTKSGSDGGVVNITYMHRLPDSEGMTLVNDIVAKWNKEHPNIQVKATKFDGNAADMIKKLETDVKAGNAPDLAQVGYAEVPEVFTKGLLQDVTDEAAKYKDDFASGPFALMQVDGKTYGLPQDTGPLTYFYNAAEFEKLGITVPKTADELIETAKKTAAQGKYIMTFTPDEAMMMMSGQAGASGPWYKVDGNSWVVNTQTKGSKAVADVYQQLIDNKAALTNPRWDASFDNSIQSGQLIGTVAAAWEAPLFIDSAGGTGAGEWKVTQLGDWFGNGTKTGANGGSGVAVLKGSKHPAEAMEFLDWFNTQVDDLVSQGLVVAATTADAKTPQKWSDYFSGQDVMAEFKTANDNMGDFTYMPGFSAVGAAMKQTAAKAADGSAKVSDVFDTAQKTSVDTLKNLGLSVKE
**Q.** For B1, which “glycan array binding signal (z-score)” value [1] is on record?
**A.** -0.112

**Q.** What about the “glycan array binding signal (z-score)” value [2] of the same binder?
**A.** -0.172

**Q.** What about the “glycan array binding signal (z-score)” value [3] of the same binder?
**A.** -0.039

**Q.** What about the “glycan array binding signal (z-score)” value [4] of the same binder?
**A.** 6.71

**Q.** And the “glycan array binding signal (z-score)” value [5]?
**A.** -0.186

**Q.** And the “glycan array binding signal (z-score)” value (Gal(b1-4)Gal)?
**A.** -0.159

**Q.** And the “glycan array binding signal (z-score)” value [6]?
**A.** -0.144

**Q.** And the “glycan array binding signal (z-score)” value [7]?
**A.** -0.192

**Q.** And the “glycan array binding signal (z-score)” value (Gal(b1-4)Glc)?
**A.** -0.171

**Q.** And the “glycan array binding signal (z-score)” value (Gal(b1-4)Glc6S)?
**A.** -0.168

**Q.** And the “glycan array binding signal (z-score)” value (Gal(b1-4)GlcNAc)?
**A.** -0.125

**Q.** What about the “glycan array binding signal (z-score)” value [8] of the same binder?
**A.** -0.151

**Q.** And the “glycan array binding signal (z-score)” value (Gal(b1-4)GlcNAc(b1-2)Man)?
**A.** -0.176

**Q.** And the “glycan array binding signal (z-score)” value [9]?
**A.** -0.173

**Q.** And the “glycan array binding signal (z-score)” value [10]?
**A.** -0.168

**Q.** What about the “glycan array binding signal (z-score)” value [11] of the same binder?
**A.** -0.107

**Q.** And the “glycan array binding signal (z-score)” value [12]?
**A.** -0.187

**Q.** What about the “glycan array binding signal (z-score)” value [13] of the same binder?
**A.** -0.191

**Q.** What about the “glycan array binding signal (z-score)” value [14] of the same binder?
**A.** -0.172

**Q.** And the “glycan array binding signal (z-score)” value [15]?
**A.** -0.168

**Q.** What about the “glycan array binding signal (z-score)” value [16] of the same binder?
**A.** -0.176

**Q.** What about the “glycan array binding signal (z-score)” value [17] of the same binder?
**A.** -0.158

**Q.** What about the “glycan array binding signal (z-score)” value [18] of the same binder?
**A.** -0.145

**Q.** And the “glycan array binding signal (z-score)” value [19]?
**A.** -0.18

**Q.** What about the “glycan array binding signal (z-score)” value [20] of the same binder?
**A.** -0.157

**Q.** And the “glycan array binding signal (z-score)” value [21]?
**A.** -0.18

**Q.** And the “glycan array binding signal (z-score)” value [22]?
**A.** -0.153

**Q.** What about the “glycan array binding signal (z-score)” value [23] of the same binder?
**A.** -0.145

**Q.** What about the “glycan array binding signal (z-score)” value [24] of the same binder?
**A.** -0.124

**Q.** And the “glycan array binding signal (z-score)” value [25]?
**A.** -0.134

**Q.** What about the “glycan array binding signal (z-score)” value [26] of the same binder?
**A.** -0.182

**Q.** What about the “glycan array binding signal (z-score)” value [27] of the same binder?
**A.** -0.158

**Q.** What about the “glycan array binding signal (z-score)” value [28] of the same binder?
**A.** -0.177

**Q.** And the “glycan array binding signal (z-score)” value [29]?
**A.** -0.163

**Q.** What about the “glycan array binding signal (z-score)” value [30] of the same binder?
**A.** 1.79

**Q.** And the “glycan array binding signal (z-score)” value [31]?
**A.** -0.167

**Q.** And the “glycan array binding signal (z-score)” value [32]?
**A.** -0.14

**Q.** And the “glycan array binding signal (z-score)” value [33]?
**A.** -0.09
